Test results published in patent US20240156979A1 (PALLEON PHARMACEUTICALS, published 2024).

Biological target: T1, Siglec-specific antibody for Siglec-9 (R&D Systems MAB1139)
T1 construct: Bought reagent, known only by its catalog number; also called anti-Siglec-9 antibody; Sig-9 specific antibody
Assay: ForteBio Octet; construct captured on AHC biosensor, antibody titrated; 1:1 fit
Method: Binding of purified Siglec ECD constructs to anti-Siglec antibodies was measured by ForteBio Octet.
Briefly, Siglec ECD constructs were captured on an AHC (Anti-human IgG-Capture) Biosensor. Siglec-specific antibodies for Siglec-6 (R&D Systems; MA2859), Siglec-9 (R&D Systems MAB1139), Siglec-10 (Thermo Fisher Scientific; MA5-28237), Siglec-11 (R&D Systems; MAB3258), and Siglec-15 (a monoclonal antibody derived from a 5G12 variant having a hVH1 heavy chain and hVL3 light chain as described in WO2018/057735) were titrated from 100 nM in a 2× series dilution. The signal was subtracted with buffer reference and aligned to the baseline. KD, Kon and Koff values were generated using a 1:1 fitting model. The binding kinetics for the following Siglec ECD constructs were determined: Sig-6-Fc-1G, Sig-6-SAX-Fc-1G, Sig-9-Fc, Sig-9-Fc-1G, Sig-9-SAX-Fc-1G, Sig-11-Fc-1G, Sig-11-SAX-Fc-1G, Sig-15-Fc-1G, and Sig-15-SAX-Fc-1G. All the ForteBio Octet assays used standard/conventional settings.

B1: Sig-9-Fc-1G (Fc fusion)
chain: QTSKLLTMQSSVTVQEGLCVHVPCSFSYPSHGWIYPGPVVHGYWFREGANTDQDAPVATNNPARAVWEETRDRFHLLGDPHTKNCTLSIRDARRSDAGRYFFRMEKGSIKWNYKHHRLSVNVTALTHRPNILIPGTLESGSPQNLTCSVPWACEQGTPPMISWIGTSVSPLDPSTTRSSVLTLIPQPQDHGTSLTCQVTFPGASVTTNKTVHLNVSYPPQNLTMTVFQGDGTVSTVLGNGSSLSLPEGQSLRLVCAVDAVDSNPPARLSLSWRGLTLYPSQPSNPGVLELPWVHLRDAAEFTCRAQNPLGSQQVYLNVSLQSKATSGVTQGAS[human IgG1 Fc with changes not given here]
notes: also called Sig-9-1G-Fc; Sig-9-1G
Which Kd does the source give for B1 here?
Its Kd is under 10 nM.
